Counter-ions that a name gives are not always drawn. ± gives the standard deviation of the averaged measurements. Whole data set: some 3,100 compounds, median “mean cytoplasmic OPP incorporation (global translation) relative to DMSO” near 100, cut for the lowest 2% near 56. The list shows a part of the results.
tested on: U2OS; assay: mean cytoplasmic OPP incorporation (global translation) relative to DMSO (% of DMSO); higher = more protein synthesis; conditions: 10 µM; 24 h
Procedure: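 Primary image-based screen in U2OS cells: compounds at 10 uM for 24 h, then a 1 h o-propargyl-puromycin (OPP) pulse, click labelling, and high-throughput microscopy. Mean cytoplasmic OPP intensity and nuclei count were normalised to DMSO wells within each plate (DMSO = 100) and averaged over triplicate plates.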

Row | SMILES | mean cytoplasmic OPP incorporation
1 | CO/N=C(\C(=O)N[C@@H]1C(=O)N2C(C(=O)O)=C(C[N+]3(C)CCCC3)CS[C@H]12)c1csc(N)n1 [Cefepime hydrochloride] | 78.7
2 | Cc1noc(NS(=O)(=O)c2ccc(N)cc2)c1C [Sulfisoxazole] | 102 ± 7.8
3 | CCc1cccc2c3c([nH]c12)C(CC)(CC(=O)O)OCC3 (stereo not given) [Etodolac] | 96.9
4 | CCc1cccc2c3c([nH]c12)C(CC)(CC(=O)O)OCC3 (stereo not given) [Etodolac (Lodine)] | 101
5 | CCC[C@H](NC(=O)[C@@H]1[C@H]2CCC[C@H]2CN1C(=O)[C@@H](NC(=O)[C@@H](NC(=O)c1cnccn1)C1CCCCC1)C(C)(C)C)C(=O)C(=O)NC1CC1 [Telaprevir (VX-950)] | 102
6 | C[C@@H]1CN(CC(=O)Nc2ccc3c(c2)Cc2cccc(-c4cc(=O)cc(N5CCOCC5)o4)c2S3)C[C@H](C)O1 | 121
7 | CC[N+](CC)(CC)CCC(O)(c1ccccc1)C1CCCCC1 (stereo not given) [Tridihexethyl chloride] | 101
8 | C[C@]12CC[C@@H]3c4ccc(O)cc4CC[C@H]3[C@@H]1C[C@@H](O)[C@@H]2O [Estriol] | 104 ± 9.1
9 | CN(C)CCCO[C@@H]1[C@H]2OC(C)(C)O[C@H]2O[C@@H]1[C@H](O)CO [Amiprilose hydrochloride] | 107
10 | Cc1nc(N)sc1-c1ccnc(Nc2ccc(N3CCOCC3)cc2)n1 | 93.4
11 | C=CC(=O)Nc1ccc2ncnc(Nc3ccc(OCc4cccc(F)c4)c(Cl)c3)c2c1 | 122 ± 29
12 | CC(Oc1c(Cl)cccc1Cl)C1=NCCN1 (stereo not given) [Lofexidine] | 105
13 | CC1=C(CC(=O)O)c2cc(F)ccc2/C1=C\c1ccc([S+](C)[O-])cc1 (stereo not given) [Sulindac] | 101 ± 8.4
14 | C=CC(=O)N1CCC[C@@H](n2nc(-c3ccc(Oc4ccccc4)cc3)c3c(N)ncnc32)C1 | 105 ± 2.3
15 | COc1c(OCCCN2CCOCC2)ccc2c1N=C(NC(=O)c1cnc(N)nc1)N1CCN=C21 | 94.1
16 | [I-].[K+] [Potassium iodide] | 103
17 | O=C1N(c2ccccc2)c2ccccc2C1(Cc1ccncc1)Cc1ccncc1 [Linopirdine dihydrochloride] | 100
18 | CC(C)CCC[C@@H](C)[C@H]1CC[C@H]2[C@@H]3C(=O)C=C4C[C@@H](O)CC[C@]4(C)[C@H]3CC[C@]12C [7-Ketocholesterol] | 112
19 | Cc1cc(-n2c(=O)[nH]c(=O)n(C)c2=O)ccc1Oc1ccc(SC(F)(F)F)cc1 [Toltrazuril] | 100
20 | Cc1ccccc1N1C(=O)c2cc(S(N)(=O)=O)c(Cl)cc2NC1C (stereo not given) [Metolazone] | 92.5
21 | COc1ccc(CNC(=O)Nc2ncc([N+](=O)[O-])s2)cc1 | 96.73 ± 0.15
22 | OCCOCCN1CCN(C(c2ccccc2)c2ccc(Cl)cc2)CC1 (stereo not given) [Hydroxyzine dihydrochloride] | 98.6
23 | C=CC1=C(C(=O)O)N2C(=O)[C@@H](NC(=O)/C(=N\OCC(=O)O)c3csc(N)n3)[C@H]2SC1 [Cefixime] | 87.6
24 | Nc1cccc2c1CN(C1CCC(=O)NC1=O)C2=O (stereo not given) [Lenalidomide (Revlimid)] | 98.8
25 | CC(=O)Nc1ccc(O)cc1 [Acetaminophen] | 106 ± 2.5

Row | SMILES | mean cytoplasmic OPP incorporation
26 | COc1nc(-c2ccc3c(c2)OCO3)n(-c2ccc(NC(=O)CSc3ccccc3)cc2)n1 [SecinH3] | 120
27 | O=C(Nc1ccc(-c2ccnc(Nc3ccc(N4CCOCC4)cc3)n2)cc1)C1CCCN1 (stereo not given) | 115
28 | CCS(=O)(=O)Nc1ccc2c(c1)/C(=C(/Nc1ccc(CN3CCCCC3)cc1)c1ccccc1)C(=O)N2 [Hesperadin] | 56.2
29 | COc1ccc2[nH]c([S+]([O-])Cc3ncc(C)c(OC)c3C)nc2c1 (stereo not given) [Omeprazole] | 99.5 ± 2.1
30 | N[C@H](C(=O)O)[C@H](OCc1ccccc1)C(=O)O (racemic) | 103
31 | N=C(N)N/N=C/c1c(Cl)cccc1Cl [Guanabenz acetate] | 97.2 ± 8.3
32 | OC(CCN1CCCCC1)(c1ccccc1)C1CCCCC1 (stereo not given) [Trihexyphenidyl-D,L Hydrochloride] | 107
33 | CCCc1nc(C(C)(C)O)c(C(=O)O)n1Cc1ccc(-c2ccccc2-c2nnn[nH]2)cc1 [Olmesartan] | 98.2
34 | OC[C@H]1NC[C@@H](O)[C@@H](O)[C@@H]1O [1-Deoxymannojirimycin hydrochloride] | 103
35 | Brc1c(NC2=NCCN2)ccc2nccnc12 | 102
36 | Brc1c(NC2=NCCN2)ccc2nccnc12 [UK 14,304 tartrate] | 98
37 | CN(C)CCOC(=O)COc1ccc(Cl)cc1 [Meclofenoxate hydrochloride] | 102
38 | CC(C)(C)c1cc(O)ccc1O [tert-Butylhydroquinone] | 99.2
39 | CC(N)C12CC3CC(CC(C3)C1)C2 (stereo not given) [Rimantadine Hydrochloride] | 97.5
40 | Fc1cc(-c2cccc3ncc(-c4cnn(C5CCNCC5)c4)nc23)cc(F)c1CN1CCOCC1 | 91.8
41 | CCC(=O)NC[C@H](Cc1ccc(OCCc2nc(-c3ccccc3)oc2C)cc1)N/C(C)=C\C(=O)c1ccc(C(F)(F)F)cc1 | 97.9
42 | COc1ccc(C[C@@H]2c3cc(OC)c(OC)cc3CC[N@+]2(C)CCC(=O)OCCCCCOC(=O)CC[N@@+]2(C)CCc3cc(OC)c(OC)cc3[C@H]2Cc2ccc(OC)c(OC)c2)cc1OC [Cisatracurium besylate (Nimbex)] | 118
43 | CCOC(=O)c1c(C)n(C)c2ccc(O)cc12 [Mecarbinate] | 94.7
44 | Nc1cc(-c2ccncc2)c[nH]c1=O [Amrinone] | 110
45 | c1ccc2nc(C3=NCCN3)cnc2c1 [BU 239 hydrochloride] | 101
46 | CCC(=O)OCC(=O)[C@@]1(OC(=O)CC)[C@H](C)C[C@H]2[C@H]3[C@H]([C@@H](O)C[C@@]21C)[C@@]1(C)C=CC(=O)C=C1C[C@H]3Cl [Alclometasone dipropionate] | 97.9
47 | CN(CCOc1ccc(CC2SC(=O)NC2=O)cc1)c1ccccn1 (stereo not given) [Rosiglitazone Hydrochloride] | 106
48 | CN(CCOc1ccc(CC2SC(=O)NC2=O)cc1)c1ccccn1 (stereo not given) [Rosiglitazone maleate] | 112
49 | O=C(NCC(=O)N1CCCC1)Nc1ccc2cnccc2c1 | 81.2
50 | Cn1c([N+](=O)[O-])cnc1COC(N)=O [Ronidazole] | 101

Row | SMILES | mean cytoplasmic OPP incorporation
51 | O=C1c2ccccc2S(=O)(=O)N1CCCCN1CCN(c2ncccn2)CC1 [Ipsapirone] | 93.1 ± 2.5
52 | Cc1ccc2c(c1)C(=O)C1(O)CCN(c3ccccc3)C1=N2 (racemic) [(±)-Blebbistatin] | 103
53 | CN(C)[C@@H]1C(O)=C(C(N)=O)C(=O)[C@@]2(O)C(O)=C3C(=O)c4c(O)ccc(Cl)c4[C@@H](O)[C@H]3C[C@@H]12 [Demeclocycline hydrochloride] | 96.3
54 | O=C(O)c1cc(O)c2ccc(Cl)cc2n1 [7-Chlorokynurenic acid] | 99.9
55 | Cc1cc(Nc2nc(N[C@@H](C)c3ncc(F)cn3)ncc2Cl)[nH]n1 | 80.6
56 | COC[C@H](NC(=O)c1cnc(C)s1)C(=O)N[C@@H](COC)C(=O)N[C@@H](Cc1ccccc1)C(=O)[C@@]1(C)CO1 [Oprozomib (ONX 0912)] | 62.1
57 | O=C(O)CCC/C=C\C[C@@H]1CO[C@H](C(F)(F)F)O[C@@H]1c1ccccc1O | 101
58 | CC(Oc1ccccc1)C(=O)N[C@@H]1C(=O)N2[C@@H]1SC(C)(C)[C@@H]2C(=O)O (stereo not given in full) [Phenethicillin potassium salt] | 94
59 | CC[C@@H]1/C=C(\C)C[C@H](C)C[C@H](OC)[C@H]2O[C@@](O)(C(=O)C(=O)N3CCCC[C@H]3C(=O)O[C@H](/C(C)=C/[C@@H]3CC[C@H](Cl)[C@H](OC)C3)[C@H](C)[C@@H](O)CC1=O)[C@H](C)C[C@@H]2OC [Pimecrolimus] | 115
60 | COc1ccc(C(=O)NCc2ccc(OCCN(C)C)cc2)cc1OC [Itopride] | 89.3
61 | N[C@@H](C(=O)N[C@@H]1C(=O)N2C(C(=O)O)=C(Cl)CS[C@H]12)c1ccccc1 [Cefaclor hydrate] | 88.8
62 | CCN1CC(CCN2CCOCC2)C(c2ccccc2)(c2ccccc2)C1=O (stereo not given) [Doxapram HCl] | 99.6
63 | O=C(c1cc(O)c(O)c(O)c1)c1ccc(O)c(O)c1O [Exifone] | 100
64 | Cc1c(C(=O)NN2CCOCC2)nn(-c2ccc(Cl)cc2Cl)c1-c1ccc(I)cc1 | 102
65 | Cc1cnc(CNC(=O)c2c(=O)c3ccc(N4CCCN(C)CC4)nc3n3c2sc2ccccc23)cn1 | 116
66 | CN(C)Cc1cccc(N/C(=C2\C(=O)Nc3cc(C(N)=O)ccc32)c2ccccc2)c1 | 92.6
67 | CC(=O)N[C@H]1[C@H]([C@H](O)[C@H](O)CO)OC(C(=O)O)=C[C@@H]1NC(=N)N [Zanamivir (Relenza)] | 99.8
68 | Nc1ncnc2c1ncn2[C@@H]1O[C@H](COP(=O)(O)OP(=O)(O)OP(=O)(O)O)[C@@H](O)[C@H]1O [ATP (Adenosine-Triphosphate)] | 98.7
69 | CC(C)Oc1ccc2c(=O)c3cc(C(=O)O)ccc3oc2c1 | 102
70 | CNCCC(Oc1ccc(C(F)(F)F)cc1)c1ccccc1 (stereo not given) [Fluoxetine hydrochloride] | 101 ± 9.2
71 | Cc1nc2n(c(=O)c1CCN1CCC(c3noc4cc(F)ccc34)CC1)CCCC2 [Risperidone] | 110
72 | C[C@@H](CN1CC(=O)NC(=O)C1)N1CC(=O)NC(=O)C1 [Dexrazoxane HCl] | 112
73 | C[C@@H](CN1CC(=O)NC(=O)C1)N1CC(=O)NC(=O)C1 [Dexrazoxane hydrochloride] | 101
74 | C#CCN1C(C)=C(C(=O)OC)C(c2cccc([N+](=O)[O-])c2)C(C(=O)OCC)=C1C (stereo not given) | 101
75 | OCc1cc(C(O)CNCCCCCCOCCCCc2ccccc2)ccc1O (stereo not given) [Salmeterol] | 110 ± 3.7
